Results from PubChem BioAssay AID588855 (National Center for Advancing Translational Sciences (NCATS), 2011).
Hit rate of the full screen: of about 410,000 compounds, about 5,000 (1.2%) were called active. The inconclusive results got no clear call from the source; some entries with a clear call stand among them for comparison. Calls follow the shape of the dose curve; as a rule, active = well fitted inhibition curve with a large enough effect; inconclusive = small, poorly fitted or top-dose-only effect; inactive = no such curve, though single readings can be large or run the other way. Potencies beside an inconclusive call are fits to weak or partial responses and may not hold up.
Potency is read from the fitted curve at half-maximal effect; tags tell the direction and shape of the fitted curve.

Test: qHTS for Inhibitors of TGF-b; also: nearly all actives have a fitted effect of over 65% in size
Conditions: HepG2 CAGA-GFP TGF-b/SMAD3 reporter, GFP fluorescence, 18 h, TGF-beta stimulated, 500 pg/mL final; series mostly up to 46.1 µM
How it was run: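 TGF-beta reporter screen: HEPG2 CAGA-GFP, 1% FBS, 500 pg/mL TGF-beta final, 18 h; per-cell GFP summed per well; curves fitted and categorized by class.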
For `Cc1ccc(OCC(=O)c2cc(C)n(Cc3cccs3)c2C)c([N+](=O)[O-])n1`, the Potency was “inactive”.
In the case of `COc1ccc(OC)c(-c2nc3ccccc3nc2-c2ccccc2)c1`, the Potency is reported as inconclusive: 17.8 µM [inhibitor, single point].
For `Cc1ccc(Cn2c(C(C)Nc3nc(-c4ccc(F)cc4)cs3)nc3cc(Cl)c(Cl)cc32)cc1` (centres undefined), the Potency was inconclusive: 11.2 µM [inhibitor, partial curve, poor fit].
For `Oc1ccc(NCc2ccccc2OCc2ccc(Cl)cc2)cc1`, the Potency was active: 5.62 µM.
With `O=c1[nH]c2c(-c3nc(-c4ccc(F)cc4)cs3)c(O)cn2c2ccc(Br)cc12` the Potency was “inactive”.
With `O=C(NCCc1ccc(Cl)cc1)c1cc(S(=O)(=O)N2CCCCC2)c[nH]1` the Potency was inconclusive: 35.5 µM [inhibitor, single point].
In the case of `Cc1ccc(NC(=O)CC2Nc3ccccc3NC2=O)cc1C` (centres undefined), the Potency is reported as “inactive”.
In the case of `CC(=O)Nc1cc(-c2cccc(NS(C)(=O)=O)c2)cn2c(-c3ccc(F)c(Cl)c3)cnc12`, the Potency is reported as inconclusive: 14.1 µM [inhibitor, single point].
With `COc1cccc(NC(=O)C(Cc2ccccc2)NS(=O)(=O)c2ccc3c(c2)c(=O)n(C)c(=O)n3C)c1` (centres undefined) the Potency was inconclusive: 0.0891 µM [inhibitor, full curve, poor fit].
In the case of `CCCCNC(=S)Nc1ccc(SC(F)F)cc1`, the Potency is reported as inconclusive: 12.6 µM [inhibitor, partial curve, poor fit].
With `C(=C\c1ccccc1)/CN1CCN(C(c2cccs2)c2nnnn2-c2ccc3c(c2)OCCO3)CC1` (centres undefined) the Potency was inconclusive: 35.5 µM [inhibitor, single point].
With `COc1ccc2[nH]c(C(=O)NCCc3ccccc3)cc2c1` the Potency was “inactive”.
With `COc1cc(C)ccc1OCC(=O)NCC1CCCO1` (centres undefined) the Potency was “inactive”.
With `S=C(Nc1ccc(Nc2ccccc2)cc1)Nc1ccccn1` the Potency was inconclusive: 17.8 µM [inhibitor, single point].
For `CC1(C(=O)NS(=O)(=O)C2CC2)CCN(C(=O)c2cccc(OC(F)(F)F)c2)C1` (centres undefined), the Potency was inconclusive: 3.55 µM [inhibitor, single point].
With `O=C(O)CSCc1cn2cc(Cl)ccc2n1` the Potency was “inactive”.
In the case of `Cc1cc(C)nc(SCC(=O)N2CCc3ccccc32)n1`, the Potency is reported as “inactive”.
With `CCOc1ncccc1C(=O)N1CCN(c2cc(Cl)ccc2C)CC1` the Potency was inconclusive: 12.6 µM [inhibitor, partial curve, poor fit].
For `CCOc1ccc(NC(=O)c2cc(S(=O)(=O)NC3CCCCCC3)ccc2F)cc1`, the Potency was inconclusive: 17.8 µM [inhibitor, single point].
With `COc1ccc2c(c1)CCc1c(C(=O)Nc3c(C)nn(Cc4ccccc4)c3C)noc1-2` the Potency was inconclusive: 6.31 µM [inhibitor, single point].
With `O=C(CCc1ccccc1)NNC(=S)NC(=O)c1ccc(Cl)cc1` the Potency was inconclusive: 3.98 µM [inhibitor, partial curve].
For `COc1cc(-c2cnc3c(NC(C)=O)cc(-c4cccc(C(=O)NCCO)c4)cn23)cc(OC)c1OC`, the Potency was “inactive”.
For `CCN(CC)C(=O)C1CCN(S(=O)(=O)c2c(C)noc2/C=C/c2cccc(OC)c2)CC1`, the Potency was inconclusive: 5.01 µM [inhibitor, single point].
For `CCC(C)NC(=O)CCCc1nnc2n(CC(C)C)c(=O)c3sccc3n12` (centres undefined), the Potency was “inactive”.
In the case of `CN(C)c1nc(NNC(=O)c2ccccc2)nc(N(C)C)n1`, the Potency is reported as inconclusive: 0.355 µM [inhibitor, partial curve, poor fit].
For `Cc1cc2c([nH]c3ccccc32)c2c1OC(C)(C)C=C2`, the Potency was inconclusive: 22.4 µM [inhibitor, single point].
With `Cc1ccc(Nc2c(C(C)C)c(C)c(C#N)c3nc4ccccc4n23)cc1` the Potency was inconclusive: 25.1 µM [inhibitor, single point].
With `CCOc1ccc(N2CC(C(=O)Nc3cc(S(=O)(=O)N4CCCCC4)ccc3C)CC2=O)cc1` (centres undefined) the Potency was inconclusive: 22.4 µM [inhibitor, single point].
In the case of `Cc1ccc(NC(=O)N2CCN(Cc3ccc4c(c3)OCO4)CC2)cc1`, the Potency is reported as inconclusive: 25.1 µM [inhibitor, single point].
For `CN(C)S(=O)(=O)Oc1ccsc1C(=O)Nc1cccc(Cl)c1Cl`, the Potency was “inactive”.
With `Cc1cc(Br)c2c(c1)/C(=C/C(=O)c1cccs1)C(=O)N2` the Potency was inconclusive: 35.5 µM [inhibitor, single point].
With `COc1cc(C(=O)NCc2cc3cc(Cl)ccc3n2C)cc(OC)c1OC` the Potency was inconclusive: 11.2 µM [inhibitor, single point].
In the case of `CCCCCCCN(C(=O)CCl)c1cccc(C)c1`, the Potency is reported as inconclusive: 22.4 µM [inhibitor, partial curve, poor fit].
In the case of `COc1ccc(-c2c(C#N)sc(C(N)=O)c2-c2ccc(OC)cc2)cc1`, the Potency is reported as inconclusive: 14.1 µM [inhibitor, single point].
In the case of `COc1ccc(OC)c(NC(=S)NCCN2CCOCC2)c1`, the Potency is reported as inconclusive: 35.5 µM [inhibitor, single point].
With `O=C(CCc1ccccc1Cl)NC1CCCN(c2ccc(C(F)(F)F)cn2)C1` (centres undefined) the Potency was “inactive”.
For `COc1ccc(CNc2ncnc3cc(Cl)ccc23)cc1OC`, the Potency was inconclusive: 22.4 µM [inhibitor, single point].
With `O=C(Nc1ccccc1)Nc1ccc2nnsc2c1` the Potency was inconclusive: 35.5 µM [inhibitor, single point].
For `COc1ccc(C2CC(c3ccccc3)=NN2C(=O)COC(=O)c2cccc(N)c2)cc1` (centres undefined), the Potency was inconclusive: 35.5 µM [inhibitor, single point].
In the case of `COc1cccc(CNC(=O)c2cccc(S(=O)(=O)N3CCN(C)CC3)c2)c1`, the Potency is reported as “inactive”.
In the case of `COc1ccccc1N(C)S(=O)(=O)c1ccc(C(=O)N(C)Cc2cccc(OC)c2OC)cc1`, the Potency is reported as “inactive”.
With `CC1=CC(C)(C)N2C(=O)C3(NCCc4c3[nH]c3ccccc43)c3cc(C)cc1c32` (centres undefined) the Potency was inconclusive: 11.2 µM [inhibitor, partial curve, poor fit].
With `O=C(CCSc1ccccc1)Nc1nc2c(s1)CCCC2` the Potency was “inactive”.
In the case of `Cc1ccc(CNC(=O)c2c(C)oc3ncnc(N4CCOCC4)c23)cc1`, the Potency is reported as “inactive”.
